Assay results as given in the supplement of paper PMC9588766.
Structures can show the parent of a compound that is named as a salt. ± gives the standard deviation of the averaged measurements. Whole data set: some 2,000 compounds, median “cell viability relative to DMSO control (compound alone)” near 0.98, cut for the lowest 2% near 0.23. The list shows a part of the results.

Each molecule was assayed on PDC-DUC18828 (assay: cell viability relative to DMSO control (compound alone) (fraction); PDC-DUC18828 is a patient-derived cholangiocarcinoma cell line; higher = less growth inhibition). Conditions: 1 µM; 72 h.
Method: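 Selleck Bioactive library screen in the patient-derived FGFR2-G3BP2 fusion-positive ICC cell line PDC-DUC18828 (500 cells/well). Each compound was tested at 1 uM alone, in triplicate, for 72 h. Viability was read by CellTiter-Glo and normalised to plate DMSO controls.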
With `CC(=O)OCC(=O)NCCCOc1cccc(CN2CCCCC2)c1` [Roxatidine Acetate HCl] the cell viability was 0.918 ± 0.017.
For `CCn1cc(C(=O)O)c(=O)c2cc(F)c(N3CCNCC3)nc21` [Enoxacin], the cell viability was 0.951 ± 0.028.
Work on `C=C(C)[C@@H]1CC[C@]2(C(=O)O)CC[C@]3(C)[C@H](CC[C@@H]4[C@@]5(C)CC[C@H](O)C(C)(C)[C@@H]5CC[C@]43C)[C@@H]12` [Betulinic acid] yielded a cell viability of 0.956 ± 0.026.
For `C1N2CN3CN1CN(C2)C3` [Methenamine], the cell viability was 1.01 ± 0.056.
In the case of `O=C(O)C1=C[C@@H](O)[C@@H](O)[C@H](O)C1` [Shikimic Acid], the cell viability is reported as 1.02 ± 0.063.
For `CC(C)OC(=O)C(C(=O)OC(C)C)=C1SC=CS1` [Malotilate], the cell viability was 1.02 ± 0.035.
`CC[C@]12C=CCN3CC[C@@]4(c5cc([C@@]6(C(=O)OC)C[C@@H]7C[C@@H](C(C)(F)F)CN(Cc8c6[nH]c6ccccc86)C7)c(OC)cc5N(C)[C@H]4[C@@](O)(C(=O)OC)[C@@H]1OC(C)=O)[C@@H]32` [Vinflunine Tartrate] showed a cell viability of 0.287 ± 0.02.
In the case of `c1ccc2c(c1)CCCC2C1=NCCN1` (stereo not drawn) [Tetrahydrozoline HCl], the cell viability is reported as 0.986 ± 0.066.
With `O=C(COc1cccc2c(=O)[nH]ccc12)c1ccccc1` the cell viability was 1.05 ± 0.033.
In the case of `CCNC(=O)[C@H]1O[C@@H](n2cnc3c(N)nc(NCCc4ccc(CCC(=O)O)cc4)nc32)[C@H](O)[C@@H]1O`, the cell viability is reported as 1.022 ± 0.0044.
`CS(=O)(=O)c1ccc([C@@H](O)[C@@H](CF)NC(=O)C(Cl)Cl)cc1` [Florfenicol] was tested, and the cell viability was 0.935 ± 0.073.
Work on `CC(C)c1nc(N(C)S(C)(=O)=O)nc(-c2ccc(F)cc2)c1/C=C/[C@@H](O)C[C@@H](O)CC(=O)O` [Rosuvastatin Calcium] yielded a cell viability of 0.948 ± 0.035.
Molecule `CCCCCOc1ccc(-c2ccc(-c3ccc(C(=O)N[C@H]4C[C@@H](O)[C@@H](O)NC(=O)[C@@H]5[C@@H](O)[C@@H](C)CN5C(=O)[C@H]([C@@H](C)O)NC(=O)[C@H]([C@H](O)[C@@H](O)c5ccc(O)cc5)NC(=O)[C@@H]5C[C@@H](O)CN5C(=O)[C@H]([C@@H](C)O)NC4=O)cc3)cc2)cc1` has a cell viability of 0.975 ± 0.036.
In the case of `COC(=O)[C@H](c1ccccc1Cl)N1CCc2sccc2C1` [Clopidogrel], the cell viability is reported as 0.9834 ± 0.0064.
`COCCCC/C(=N\OCCN)c1ccc(C(F)(F)F)cc1` [Fluvoxamine maleate] gave a cell viability of 0.982 ± 0.025.
`NC(=O)N1CCC(CC(=O)N2CCC([C@H]3c4ncc(Br)cc4CCc4cc(Cl)cc(Br)c43)CC2)CC1` [Lonafarnib] was tested, and the cell viability was 0.737 ± 0.057.
Molecule `C[C@H](N[C@@H](CCc1ccccc1)C(=O)O)C(=O)N1CCC[C@H]1C(=O)O` [Enalaprilat Dihydrate] has a cell viability of 1.03 ± 0.035.
In the case of `CN(C)[C@@H]1C(O)=C(C(N)=O)C(=O)[C@@]2(O)C(O)=C3C(=O)c4c(O)cccc4[C@@](C)(O)[C@H]3C[C@@H]12` [Tetracycline HCl], the cell viability is reported as 0.904 ± 0.031.
With `O=C(Nc1cc(C(F)(F)F)cc(C(F)(F)F)c1)c1cc(Cl)ccc1O` the cell viability was 0.195 ± 0.015.
With `Nc1ccc2ncnc(NCCc3ccc(Oc4ccccc4)cc3)c2c1` the cell viability was 0.865 ± 0.04.
`Oc1c(Br)cc(Br)c2cccnc12` [Broxyquinoline] showed a cell viability of 1.09 ± 0.068.
For `COc1ccc(-c2coc3cc(O)ccc3c2=O)cc1` [Formononetin], the cell viability was 0.982 ± 0.069.
`CN1CCN(S(=O)(=O)c2ccc(-c3cnc(N)c(C(=O)Nc4cccnc4)n3)cc2)CC1` showed a cell viability of 1.11 ± 0.069.
With `CNc1nc(-c2ccc3c(N)n[nH]c3c2)cc(N2C[C@@H](C(=O)NC3CCCCC3)CC[C@H]2C)n1` the cell viability was 0.796 ± 0.046.
In the case of `CS(=O)(=O)c1ccc(C(=O)Nc2ccc(Cl)c(-c3ccccn3)c2)c(Cl)c1` [Vismodegib (GDC-0449)], the cell viability is reported as 0.994 ± 0.056.
Molecule `CC(C)C[C@H](NC(=O)[C@H](Cc1ccccc1)NC(=O)c1cnccn1)B(O)O` [Bortezomib (PS-341)] has a cell viability of 0.022 ± 0.0038.
In the case of `Cc1ccc2c(c1)C(=O)C1(O)CCN(c3ccccc3)C1=N2` (single isomer, unassigned; (-)) [(-)-Blebbistatin], the cell viability is reported as 1 ± 0.035.
In the case of `COc1ccc(CC(C)NCC(O)c2ccc(O)c(NC=O)c2)cc1` (stereo not drawn) [Formoterol Hemifumarate], the cell viability is reported as 0.957 ± 0.048.
`O=C(COc1ccc(C(=O)c2ccccc2)cc1)NC1CCN(Cc2ccccc2)CC1` [AdipoRon] showed a cell viability of 1.02 ± 0.084.
For `CC1(C)CCC(c2ccc(Cl)cc2)=C(CN2CCN(c3ccc(C(=O)NS(=O)(=O)c4ccc(N[C@H](CCN5CCOCC5)CSc5ccccc5)c(S(=O)(=O)C(F)(F)F)c4)cc3)CC2)C1` [ABT-263 (Navitoclax)], the cell viability was 0.782 ± 0.04.
`Nc1nc(F)nc2c1ncn2[C@@H]1O[C@H](COP(=O)(O)O)[C@@H](O)[C@@H]1O` [Fludarabine Phosphate] showed a cell viability of 0.929 ± 0.022.
With `O=C(NOCC1CC1)c1ccc(F)c(F)c1Nc1ccc(I)cc1Cl` the cell viability was 0.929 ± 0.038.
Work on `CCOC(=O)N1CCC(=C2c3ccc(Cl)cc3CCc3cccnc32)CC1` [Loratadine] yielded a cell viability of 1.06 ± 0.027.
For `CC[C@H]1OC(=O)[C@H](C)[C@@H](O[C@H]2C[C@@](C)(OC)[C@@H](O)[C@H](C)O2)[C@H](C)[C@@H](O[C@@H]2O[C@H](C)C[C@H](N(C)C)[C@H]2O)[C@](C)(O)C[C@@H](C)C(=O)[C@H](C)[C@@H](O)[C@]1(C)O` [Erythromycin], the cell viability was 0.973 ± 0.054.
For `c1ccc(CC2=NCCN2)cc1` [Tolazoline HCl], the cell viability was 0.99 ± 0.016.
For `CC(C)(Oc1ccc(CCNC(=O)c2ccc(Cl)cc2)cc1)C(=O)O` [Bezafibrate], the cell viability was 1.04 ± 0.027.
With `O=C(O)CCc1nc(-c2ccccc2)c(-c2ccccc2)o1` [Oxaprozin] the cell viability was 1.03 ± 0.055.
`O=C(O)CCCc1c[nH]c2ccccc12` [3-Indolebutyric acid (IBA)] was tested, and the cell viability was 0.998 ± 0.035.
For `O=C(c1cc(Cc2n[nH]c(=O)c3ccccc23)ccc1F)N1CCN(C(=O)C2CC2)CC1`, the cell viability was 1.01 ± 0.068.
In the case of `O=C1c2ccccc2C(=O)C1c1ccccc1` [Phenindione], the cell viability is reported as 0.977 ± 0.061.
Molecule `Cc1ccc(N(CC2=NCCN2)c2cccc(O)c2)cc1` [Phentolamine Mesylate] has a cell viability of 1.08 ± 0.028.
Molecule `CC(C)Nc1cc(-c2c[nH]c(C(=O)N[C@H](CO)c3cccc(Cl)c3)c2)c(Cl)cn1` has a cell viability of 0.821 ± 0.028.
`CNC[C@@H](O)c1ccc(O)c(O)c1` [L-Adrenaline] showed a cell viability of 1.04 ± 0.019.
`CCc1ccc(CCOc2ccc(CC3SC(=O)NC3=O)cc2)nc1` (stereo not drawn) [Pioglitazone] gave a cell viability of 1.04 ± 0.054.
For `CCc1ccc(CCOc2ccc(CC3SC(=O)NC3=O)cc2)nc1` (stereo not drawn) [Pioglitazone HCl], the cell viability was 1.09 ± 0.065.
Molecule `CO[C@H]1/C=C/O[C@@]2(C)Oc3c(C)c(O)c4c(O)c(c(/C=N/N5CCN(C)CC5)c(O)c4c3C2=O)NC(=O)/C(C)=C\C=C\[C@H](C)[C@H](O)[C@@H](C)[C@@H](O)[C@@H](C)[C@H](OC(C)=O)[C@@H]1C` [Rifampin] has a cell viability of 1.08 ± 0.027.
Work on `Cc1c(Cl)cccc1Nc1ccccc1C(=O)O` [Tolfenamic Acid] yielded a cell viability of 0.983 ± 0.058.
Work on `CCCSc1ccc2[nH]c(NC(=O)OC)nc2c1` [Albendazole] yielded a cell viability of 0.517 ± 0.062.
`COc1ccc(-c2ccc3c(N4CCOC[C@@H]4C)nc(N4CCOC[C@@H]4C)nc3n2)cc1CO` gave a cell viability of 0.251 ± 0.005.
`CC(C)C[C@H](NP(=O)(O)O[C@@H]1O[C@@H](C)[C@H](O)[C@@H](O)[C@H]1O)C(=O)N[C@@H](Cc1c[nH]c2ccccc12)C(=O)O` [Phosphoramidon Disodium Salt] was tested, and the cell viability was 1.03 ± 0.035.
`COc1ccc2c(c1)CCC1C2CCC2(C)C(NCCCCCCN3C(=O)C=CC3=O)CCC12` (stereo not drawn) was tested, and the cell viability was 0.867 ± 0.11.
`COc1nccc(-c2c(-c3ccc(F)cc3)ncn2C2CCC(O)CC2)n1` (stereo not drawn) gave a cell viability of 1 ± 0.038.
For `Cc1c(C(=O)Nc2ccc(Oc3ccnc4[nH]cc(-c5ccccc5)c34)c(F)c2)c(=O)n(-c2ccc(F)cc2)n1C`, the cell viability was 0.795 ± 0.012.
`CN[C@@H](C)C(=O)N[C@H](C(=O)N1CCC[C@H]1c1nc(C(=O)c2ccc(F)cc2)cs1)C1CCCCC1` gave a cell viability of 0.99 ± 0.033.
`COc1c(C)c(C(=O)c2ccc(N)c(C(=O)O)c2)n2ccccc12` was tested, and the cell viability was 0.981 ± 0.029.
Work on `CC(=O)Oc1ccccc1C(=O)Nc1ncc([N+](=O)[O-])s1` [Nitazoxanide] yielded a cell viability of 1.04 ± 0.035.
For `NC(=O)c1ccc(N(C(N)=O)c2c(F)cccc2F)nc1-c1ccc(F)cc1F`, the cell viability was 0.831 ± 0.019.
`CCCc1cc(C)[nH]c(=O)c1CNC(=O)c1cc(-c2ccc(N3CCN(C(C)C)CC3)nc2)cc2c1cnn2C(C)C` showed a cell viability of 0.93 ± 0.011.
Molecule `COc1ccc([C@@H]2CC(=O)c3c(O)cc(O)cc3O2)cc1O` [Hesperetin] has a cell viability of 1.01 ± 0.073.
`Nc1c(CC(=O)O)cccc1C(=O)c1ccccc1` [Amfenac Sodium Monohydrate] gave a cell viability of 0.942 ± 0.021.
Molecule `CC(C)(C)C(=O)Nc1ccc2c(c1)C(=O)C(=O)c1ccccc1-2` has a cell viability of 1.07 ± 0.024.
For `O=C(Nc1cccc(Cl)c1)c1ccccn1`, the cell viability was 0.954 ± 0.051.
With `N#Cc1ccc(C(c2ccc(C#N)cc2)n2cncn2)cc1` [Letrozole] the cell viability was 0.954 ± 0.055.
Molecule `Clc1ccc(CCC(Cn2ccnc2)Sc2c(Cl)cccc2Cl)cc1` (stereo not drawn) [Butoconazole nitrate] has a cell viability of 0.915 ± 0.061.
`C[C@@]1(C(=O)Nc2ccc(F)nc2)CCCN1c1nc(Nc2cc(C3CC3)n[nH]2)c2cccn2n1` was tested, and the cell viability was 0.734 ± 0.019.
With `CN(C)C(=O)Nc1cccc(-c2ccc(N(C)C)cc2)c1` [Atglistatin] the cell viability was 0.939 ± 0.079.
Molecule `CC(C)CC(N)=O` [Isovaleramide] has a cell viability of 1.05 ± 0.017.
With `CN1CCN(C2=Nc3ccccc3Oc3ccc(Cl)cc32)CC1` [Loxapine Succinate] the cell viability was 1.05 ± 0.022.
`N=C(NCCCCCCNC(=N)NC(=N)Nc1ccc(Cl)cc1)NC(=N)Nc1ccc(Cl)cc1` [Chlorhexidine HCl] showed a cell viability of 0.942 ± 0.057.
With `COc1c2occc2cc2ccc(=O)oc12` [Methoxsalen] the cell viability was 1.01 ± 0.019.
Work on `CCOC(=O)[C@@H](N)Cc1ccc(-c2cc(O[C@H](c3ccc(Cl)cc3-n3ccc(C)n3)C(F)(F)F)nc(N)n2)cc1` [Telotristat Etiprate (LX 1606 Hippurate)] yielded a cell viability of 1 ± 0.037.
`c1ccc(NCc2ccc(CNc3ccccn3)cc2)nc1` gave a cell viability of 1.03 ± 0.05.
`COC(=O)c1ccc2c(c1)nc(NC(=O)c1ccccc1)n2CCCc1ccccc1` gave a cell viability of 0.926 ± 0.019.
